Reference: the supplement of paper PMC3334620
The full ranking holds about 33,000 sequences; the median of “E-score (-0.5 to 0.5)” is about -0.021, and the highest 2% start at about 0.32. Some of the results follow.

biological target: T1, Zap1 (UniProt P47043); experiment: PBM E-score (8-mer binding enrichment) (E-score (-0.5 to 0.5)); higher = stronger / more preferred TF binding; most listed sequences are background and not binding sites; details: protein concentration: 200 nM; construct: GST-full length
T1 sequence: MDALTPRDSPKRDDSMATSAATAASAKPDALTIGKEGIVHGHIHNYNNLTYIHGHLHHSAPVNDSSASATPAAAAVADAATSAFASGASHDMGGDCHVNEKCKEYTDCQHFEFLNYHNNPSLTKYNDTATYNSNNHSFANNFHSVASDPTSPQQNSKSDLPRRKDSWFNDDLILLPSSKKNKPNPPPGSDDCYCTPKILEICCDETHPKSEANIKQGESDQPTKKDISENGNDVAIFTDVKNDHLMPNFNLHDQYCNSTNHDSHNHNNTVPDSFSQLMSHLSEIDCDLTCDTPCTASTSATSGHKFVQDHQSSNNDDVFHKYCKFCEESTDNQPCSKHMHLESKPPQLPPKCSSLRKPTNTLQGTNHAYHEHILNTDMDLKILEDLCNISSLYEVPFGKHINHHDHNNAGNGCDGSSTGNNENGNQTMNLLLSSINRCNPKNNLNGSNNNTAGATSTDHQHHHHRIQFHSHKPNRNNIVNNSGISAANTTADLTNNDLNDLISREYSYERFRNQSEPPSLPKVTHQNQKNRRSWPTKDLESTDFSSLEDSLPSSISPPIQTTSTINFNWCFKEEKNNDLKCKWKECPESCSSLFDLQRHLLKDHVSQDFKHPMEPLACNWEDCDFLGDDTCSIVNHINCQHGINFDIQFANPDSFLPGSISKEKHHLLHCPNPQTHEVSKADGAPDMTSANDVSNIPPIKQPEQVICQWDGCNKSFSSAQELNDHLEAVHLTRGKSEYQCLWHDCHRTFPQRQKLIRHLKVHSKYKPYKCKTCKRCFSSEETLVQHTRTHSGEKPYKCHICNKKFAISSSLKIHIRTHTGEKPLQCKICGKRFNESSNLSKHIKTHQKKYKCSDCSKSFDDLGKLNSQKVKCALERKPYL
Procedure, shortened: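 Bound GST-tagged yeast transcription factors, applied at about 100-200 nM to double-stranded universal all-10-mer Agilent arrays, were detected with fluorescent anti-GST. Scans were normalised with masliner. A modified Wilcoxon-Mann-Whitney statistic, the E-score, was assigned to each ungapped eight-base word pooled with its reverse complement by the Universal PBM Analysis Suite.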

Sequence | PBM E-score
GCGACTAA | 0.0519
CGGTTGTC | 0.279
CCCAGGCC | -0.085
AGCTCGAC | -0.118
ATTACCTA | 0.216
AGTTATAG | 0.148
ACGTTTGA | 0.0134
GCCAGAAC | -0.226
CTTGGCAC | 0.0731
ATATAGCC | 0.114
CGGGTAGC | 0.237
CTTGGCCA | -0.0871
AGGAAGAA | -0.195
AGCTTTAC | -0.171
ACGGGGAC | -0.122
GAAAGAAC | 0.193
CGTTGACA | -0.0771
GCCCAGCA | -0.0822
CAGAGACG | -0.0148
AGTGAGAG | -0.236
AGATAACC | 0.435
ACTACCAA | 0.125
ACCGCGGA | 0.207
CCCACAGA | 0.102
GTGGTGGA | -0.063

Sequence | PBM E-score
ATCAGATA | 0.0111
CGGATAGA | -0.00993
AGACTAGG | -0.0481
AACCTCGT | 0.322
ATCTTAGG | 0.0407
GGTACCTA | 0.398
CGATTAGA | -0.0297
CTGTACTC | -0.233
CGACTGAA | -0.106
ACCCCCCA | -0.0827
CGCTCCGA | 0.0725
ACGCTTCC | -0.15
ACAATGGA | 0.159
GAAAGATA | 0.0248
GGTGGCCA | 0.0278
AATCCGAC | -0.12
AGTGGGCG | -0.0679
CGTACTAA | 0.0675
CAAGCGTG | -0.0307
TCTATACA | -0.0532
GACTAAAC | -0.24
GATCGAGA | -0.00057
CAAAACCG | 0.199
CGGAATGA | -0.00751
ATGCAGCC | -0.0648

Sequence | PBM E-score
AGACAGAG | -0.0767
AAGCGAGG | -0.0248
CGACACAC | -0.0284
ATACGGTC | 0.0782
ATTGGTTC | 0.141
ATTGCGCA | -0.0952
GGACTCGA | -0.174
CGAAGCTC | -0.169
TACCACGA | 0.0949
GGCTTCTA | -0.17
ACACCACC | -0.0272
GCCATTCC | -0.231
ATTCTGTG | -0.0176
GACCGCTA | 0.141
TAACATAA | 0.225
GGTATAAA | 0.158
CCTTCATC | -0.115
GAATGCTA | -0.169
CGGCAACC | 0.189
AGGGAAAT | -0.165
ACTACTTC | -0.186
CAGTCTAC | -0.161
CGCTATGC | -0.388
GATATATA | 0.2
TGCTCTAA | -0.139

Sequence | PBM E-score
AGGCGCAG | -0.266
CCCGCTCA | -0.0561
ATGGCCGG | -0.105
AGAAGGAG | -0.303
GAGTGATA | 0.131
AACGCCAA | -0.154
GACTGGCA | -0.256
AGCAATCG | -0.18
CAATTGGG | -0.0104
AGGATTGA | -0.0238
CTGGGCGC | -0.24
ACCCAATC | 0.175
AGAACCAA | 0.148
CATTGTTA | 0.0792
CTAACCGA | -0.035
CTCTCTGA | -0.281
CCTTCGCG | 0.237
CATTATGG | -0.104
CGCATGGA | -0.195
ATCTTGTC | -0.14
CATTCCAG | -0.153
GGAACCCA | 0.171
AGTGTGGC | 0.0113
ATGTGGCC | 0.0114
ATCCGCAT | -0.0412

Sequence | PBM E-score
CTAGAACC | 0.0618
GGGCCGAA | -0.0565
CGATCTCA | -0.108
AAACTTGT | 0.215
CCCCGAGG | 0.139
CGGTTAGA | 0.234
CATGAAGC | -0.168
AACGCCCG | -0.136
ACGTTCTG | -0.145
ACATTGCA | 0.00575
GACGTCCA | -0.117
CCAGGACA | -0.134
TATGTTGA | 0.0657
ACGCAATA | 0.0123
GATGGTCC | -0.0967
GCTCGAAC | -5e-05
ACACTTAC | -0.143
AGTCAAGG | 0.0598
GGCTCCAC | -0.266
GCGAGGAA | -0.0961
AACAGAGG | 0.011
ACTCACAC | -0.0215
GTCCAAAC | 0.0137
GTACCATA | 0.288
AGAGGTTG | 0.218

Sequence | PBM E-score
AAATAGAC | -0.0181
CGTACGTC | -0.34
ATAAAGCG | 0.00524
AGTTCGCG | 0.0423
AAGCAACA | -0.0264
CAGGGTGC | 0.0059
GATGAGAA | 0.0673
CCGTCCGC | -0.41
CTTCTACA | -0.0296
CGCCAACA | 0.0208
CTTGTAAA | 0.199
GCAGGGAA | -0.0199
AAAACCGT | 0.173
AGCTTCCT | -0.0905
AATCGGAA | 0.0648
GGGGAGGA | -0.263
AGTAATGG | 0.0747
ATGGTTGG | -0.0414
AGGACCCG | 0.19
ATTTCGTG | 0.0636
GAACCTTA | 0.264
CTAACAGC | -0.0498
AACGCAGT | -0.0249
ATAGCCGA | -0.0104
TCGTCCCA | 0.0692

Sequence | PBM E-score
ATTTGTAA | 0.15
AATATATA | 0.0391
CAGCCCTA | -0.00473
GAGTATCC | -0.138
ATGCTGTA | 0.049
CATAGACC | -0.0638
GGGTTCAC | -0.0414
GGGATCTA | -0.0561
ATGATCAG | 0.0568
GAGTATCA | -0.154
TCGCATCA | -0.0702
CAGTAGTA | -0.138
ATGTGAAA | 0.0158
ACCACCAA | 0.134
AAGTGCTC | -0.25
CTCAGTGA | -0.201
GCTGTAGA | -0.027
ACAATTCT | 0.00604
CGCGTTGA | -0.0346
CCGAAGAC | 0.0271
CTCTAGCC | -0.133
ATCCAGGC | -0.22
